# In PubChem BioAssay AID504466 (National Center for Advancing Translational Sciences (NCATS), 2011):
# The whole screen tested about 330,000 compounds, of which about 4,200 (1.3%) were called active. Inconclusive means that the source gave no clear call. Such entries were picked first, then a sample of the others. Calls come from the whole dose curve; as a rule, active = well fitted activation curve with a large enough effect; inconclusive = small, poorly fitted or top-dose-only effect; inactive = no such curve, though single readings can be large or run the other way. Where the call is inconclusive, the potency comes from a doubtful curve fit.
# Assay: qHTS screen for small molecules that induce genotoxicity in human embryonic kidney (HEK293T) cells expressing luciferase-tagged ELG1; note: nearly all actives have a fitted effect of over 60% in size
# Details: HEK293T ELG1-luciferase reporter, luminescence, 16 h; series mostly up to 46 µM
# In short: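 After overnight (16 hr) compound treatment at 37 °C, ELG1-luciferase HEK293T cells were lysed with ONE-Glo; luminescence quantified 30 min later at room temperature.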
# Potency is the fitted concentration of half-maximal effect; tags give direction and shape of the fitted curve.
row,SMILES,Potency
1,COc1ccc2occ(C(=O)c3coc4ccc(O)c(CN(C)C)c34)c2c1,inactive
2,COc1cc(-c2nc(-c3ccccn3)no2)cc(OC)c1OC,"inconclusive: 18.4 µM [activator, partial curve]"
3,O=C(Nc1ncccn1)c1cc(-c2cccc(Br)c2)nc2ccccc12,inactive
4,Cc1ccc(C(=O)Nc2ccc(Cl)cn2)cc1,active: 2.31 µM
5,O=C(Nc1ccccc1F)c1cc2nc(C(F)F)cc(C(F)F)n2n1,"inconclusive: 23.1 µM [activator, partial curve, poor fit]"
6,O=C(NCc1cccnc1)c1cccc(S(=O)(=O)Nc2cccc(Cl)c2)c1,inactive
7,COc1cccc(NC(=O)Nc2ccc3c(c2)OCO3)c1,"inconclusive: 10.3 µM [activator, partial curve]"
8,Cc1cc(C(=O)CS(=O)(=O)c2ccccc2)cc(C)c1O,"inconclusive: 29.1 µM [activator, partial curve, poor fit]"
9,COc1ccc2c(c1O)C(=O)c1ccccc1C2=O,inactive
10,C/C(=N\NC(=O)c1ccccc1)c1ccccc1Br,"inconclusive: 20.6 µM [activator, partial curve, poor fit]"
11,c1ccn2cc(CSc3nnc4ccccn34)nc2c1,active: 10.3 µM
12,COc1ccc(-c2cc3ccccc3oc2=O)cc1NC(=O)c1ccc(Br)o1,"inconclusive: 11.6 µM [activator, partial curve, poor fit]"
13,O=C(CSc1ncn[nH]1)Nc1ccc2c(c1)OCCO2,"inconclusive: 23.1 µM [activator, single point]"
14,Cc1ccc(SCC(=O)O/N=C(\N)c2cccnc2)cc1,"inconclusive: 29.1 µM [activator, partial curve, poor fit]"
15,COc1ccccc1-c1ccc(NC2CCCCC2)nn1,"inconclusive: 14.6 µM [activator, partial curve, poor fit]"
16,CCN1CCN(Cc2ccc(NC(=O)Nc3ccc(SC)cc3)cc2)CC1,"inconclusive: 18.4 µM [activator, partial curve, poor fit]"
17,CCCCn1c(N)c(N(CC(C)C)C(=O)CSCc2cccc(C)c2)c(=O)[nH]c1=O,inactive
18,COC(=O)c1ccccc1NC(=O)c1sc(N)nc1C,"inconclusive: 13 µM [activator, partial curve, poor fit]"
19,O=C(/C=C\Nc1ccc2c(c1)OCO2)c1cccs1,active: 1.03 µM
20,O=C(NCCc1ccc(Cl)cc1)C1=CC=CN2CCS(=O)(=O)N=C12,inactive
21,CCOC(=O)c1c(C)[nH]c(C(=O)Cn2nnc(-c3ccccc3Cl)n2)c1C,"inconclusive: 23.1 µM [activator, partial curve, poor fit]"
22,CN1CCC(=NNC(=O)C(=O)Nc2ccc(F)cc2)CC1,"inconclusive: 20.6 µM [activator, partial curve, poor fit]"
23,Cc1ccc(S(=O)(=O)N2CCC(C(=O)NNC(=O)c3ccccc3)CC2)cc1,inactive
24,O=C(c1ccc(Cl)c(S(=O)(=O)N2CCOCC2)c1)N1CCN(c2ccccc2)CC1,inactive
25,CCCC1(c2ccccc2)NC(=O)N(CC(=O)Nc2cc(S(=O)(=O)N3CCOCC3)ccc2Cl)C1=O (centres undefined),inactive

row,SMILES,Potency
1,CCCCCCOc1ccc(/C=c2\s/c(=C(/C#N)C(=O)NCc3ccco3)n(-c3ccccc3)c2=O)cc1,"inconclusive: 18.4 µM [activator, partial curve, poor fit]"
2,O=C(CSCc1ccccc1Cl)Nc1ccc2c(c1)OCCO2,"inconclusive: 7.31 µM [activator, partial curve]"
3,O=C(Nc1ccccc1)Nc1nc2ccccc2s1,"inconclusive: 2.31 µM [activator, partial curve]"
4,COc1cccc(-c2cc(C(=O)Nc3cc(OC)c(OC)c(OC)c3)no2)c1,inactive
5,O=C1/C(=C/c2cccs2)Sc2ccccc21,"inconclusive: 14.6 µM [activator, single point]"
6,O=C(c1ccc2oc(CCc3ccccc3)nc2c1)N1CCC(O)CC1,"inconclusive: 2.31 µM [activator, partial curve]"
7,COc1cccc(N2C(=O)CC(NNc3nc4ccccc4s3)C2=O)c1 (centres undefined),inactive
8,CCc1cccc(NC(=O)c2cccc(S(=O)(=O)N3CCN(C)CC3)c2)c1,inactive
9,COc1ccc(CCNC(=O)c2cc(COc3c(C)cccc3C)on2)c(OC)c1,"inconclusive: 23.1 µM [activator, single point]"
10,Cn1cc(CN2CCC(C(=O)Nc3ccc(Oc4ccccc4F)cc3)CC2)cn1,inactive
11,COC(=O)c1[nH]c2ccc(Br)cc2c1NC(=O)CN1CCN(C2CCCCC2)CC1,"inconclusive: 18.4 µM [activator, single point]"
12,Cc1cc(NC(=S)Nc2ccc(C)c(Cl)c2)n[nH]1,"inconclusive: 23.1 µM [activator, single point]"
13,COc1ccc(-c2cc(=NC(CC(C)C)C(=O)O)c3cc(C)ccc3o2)cc1 (centres undefined),"inconclusive: 1.84 µM [activator, full curve]"
14,CCN(CC)c1ccc2c(c1)oc(=O)c1c(Cl)cc(=O)oc12,"inconclusive: 16.4 µM [activator, partial curve]"
15,CCOC(=O)N1CCN(C(=O)CSc2nc3c([nH]c4ccccc43)c(=O)n2CCOC)CC1,inactive
16,Cc1cc(-c2nnc(CCC(=O)NCc3ccc(OC(F)(F)F)cc3)o2)no1,inactive
17,Oc1csc(Cc2nc(-c3ccc4ccccc4c3)cs2)n1,"inconclusive: 20.6 µM [activator, partial curve, poor fit]"
18,CCc1nnc(NC(=O)c2cccc(OC)c2)s1,"inconclusive: 4.61 µM [activator, full curve, poor fit]"
19,CCOc1nc(C)ccc1-c1noc(-c2cccnc2)n1,inactive
20,Cc1nc(NC(=O)/C=C/c2ccc(Cl)cc2Cl)sc1C(=O)N(C)C,inactive
21,COc1cccc(C(=O)Nc2nnc(-c3ccc(Cl)cc3)o2)c1,inactive
22,Cc1ccc(S(=O)(=O)CCc2ccccn2)cc1,inactive
23,Cc1cccnc1NC(=O)NC(=O)c1ccc(C(C)(C)C)s1,"inconclusive: 10.3 µM [activator, partial curve, poor fit]"
24,O=C(c1ccc(OC2CCN(C(=O)C3CC3)CC2)cc1)N(CCO)Cc1ccccc1,inactive
25,c1ccc(-c2nc(-c3ccc(-c4ccon4)s3)no2)cc1,"inconclusive: 2.91 µM [activator, full curve]"

row,SMILES,Potency
1,COc1ccc(Cl)cc1/C=C/c1ccc2cccc(O)c2n1,"inconclusive: 29.1 µM [activator, single point]"
2,CC1CCCN(C(=O)CSc2nnc(-c3cccs3)o2)C1 (centres undefined),"inconclusive: 11.6 µM [activator, partial curve]"
3,Cc1nc2sccc2c(=O)n1-c1cccc(Cl)c1,inactive
4,CCC(=O)Nc1ccc2oc(-c3cccnc3)nc2c1,"inconclusive: 18.3 µM [activator, partial curve]"
5,OCC#CCSc1nnc(-c2ccc(Br)cc2)o1,active: 20.6 µM
6,O=C(NC1CC1)c1ccc(N2CCCCC2)c([N+](=O)[O-])c1,"inconclusive: 18.3 µM [activator, partial curve, poor fit]"
7,COc1ccc(-c2cc(C(=O)NC(C(=O)O)C(C)C)c(C)o2)cc1OC (centres undefined),"inconclusive: 20.6 µM [activator, single point]"
8,O=C(OCc1ccccc1)c1cccc(-c2nnn(Cc3ccccc3)n2)c1,"inconclusive: 3.98 µM [activator, full curve]"
9,CCOc1ccc(N2Nc3n[nH]c(N)c3N2)cc1,"inconclusive: 23.1 µM [activator, partial curve, poor fit]"
10,O=C(Cc1ccc(O)cc1)NC1CCCCCC1,"inconclusive: 10.3 µM [activator, partial curve]"
11,Nc1ncc(Br)cc1S(=O)(=O)NCCc1ccccc1,inactive
12,O=C(CSc1nnc(NC(=O)C2CC2)s1)NCc1ccc(F)cc1,"inconclusive: 25.9 µM [activator, single point]"
13,CCc1nonc1NC(=O)c1oc2ccc(C)cc2c1C,"inconclusive: 16.4 µM [activator, partial curve, poor fit]"
14,Cc1ccc(/C(=N/Nc2ncnc3ccccc23)C(=O)O)cc1,"inconclusive: 1.83 µM [activator, partial curve]"
15,CC(=O)NN1C(=O)/C(=C2/Sc3ccccc3N2C)SC1=S,"inconclusive: 25.9 µM [activator, single point]"
16,Brc1ccccc1/C=N/Nc1ccc2ccccc2n1,"inconclusive: 7.31 µM [activator, partial curve]"
17,Cc1cc(NC(=O)c2ccccc2)ncc1NC(=O)c1ccco1,active: 1.64 µM
18,Nc1ccc(C(=O)OCc2nc3ccccc3s2)cc1,"inconclusive: 23.1 µM [activator, partial curve, poor fit]"
19,Cc1nc(NC(=O)C2CCCCC2C(=O)O)sc1C (centres undefined),"inconclusive: 23.1 µM [activator, partial curve, poor fit]"
20,O=S(=O)(Nc1c(F)cccc1F)c1ccc(Cl)nc1,inactive
21,Cc1c(C(=O)N2C[C@@H](C)O[C@@H](C)C2)oc2c(F)cccc12,"inconclusive: 18.3 µM [activator, single point]"
22,Cn1cnnc1SCC(=O)Nc1ccc(F)cc1F,inactive
23,Cc1ccccc1NC(=O)c1nc2nccc(C)n2n1,"inconclusive: 18.3 µM [activator, partial curve]"
24,COC(=O)c1ccc(-c2nc(-c3cccs3)no2)cc1,active: 0.366 µM
